Laboratory results: the supplement of paper PMC3334620
In all, about 33,000 sequences were measured (“E-score (-0.5 to 0.5)”: median about -0.013, highest 2% from about 0.3 on). This is one part of the list.

Molecular target: T1, Msn1 (UniProt P22148)
T1 sequence: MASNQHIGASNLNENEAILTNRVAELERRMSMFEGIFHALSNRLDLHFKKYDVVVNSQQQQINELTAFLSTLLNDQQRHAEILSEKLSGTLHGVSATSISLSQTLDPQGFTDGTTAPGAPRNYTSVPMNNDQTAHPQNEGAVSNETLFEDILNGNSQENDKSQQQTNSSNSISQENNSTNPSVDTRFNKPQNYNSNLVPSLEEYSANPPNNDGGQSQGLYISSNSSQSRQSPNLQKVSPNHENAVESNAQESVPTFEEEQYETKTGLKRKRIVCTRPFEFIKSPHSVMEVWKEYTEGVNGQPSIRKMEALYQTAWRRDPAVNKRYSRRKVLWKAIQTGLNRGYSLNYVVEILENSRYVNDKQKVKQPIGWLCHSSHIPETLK
Assay: PBM E-score (8-mer binding enrichment) (E-score (-0.5 to 0.5)); higher = stronger / more preferred TF binding; most listed sequences are background and not binding sites
Details: protein concentration: 200 nM; construct: GST-full length
Procedure, shortened: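 For each ungapped eight-base word taken together with its reverse complement, the Universal PBM Analysis Suite assigned an E-score. Binding data came from GST-tagged yeast transcription factors, applied at about 100-200 nM, on universal all-10-mer Agilent arrays made double-stranded by primer extension. Fluorescent anti-GST marked bound protein, and scans were normalised with masliner.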

Going from GTAGGTAA to TAACCACA, the “PBM E-score” value rises from -0.1 to -0.0961.

First: ATAACGCA
Second: CCGGAAAG
The “PBM E-score” value of the first is higher: 0.0182 for the first, -0.113 for the second.

First: CATCGCTA
Second: TGTAAACA
The “PBM E-score” value of the first is higher: 0.159 for the first, 0.0354 for the second.

First: GCTCGTCA
Second: GGCTAACC
The “PBM E-score” value of the first is higher: -0.0861 for the first, -0.296 for the second.

Going from CTAATGTA to GAAGAAAC, the “PBM E-score” value falls from 0.143 to 0.0197.

Going from ACAGCTAC to AAACTAAA, the “PBM E-score” value rises from -0.0979 to 0.205.

Compared with CGTGTAAG, TATGACCA is higher in “PBM E-score” value: 0.00677 for the first, 0.0481 for the second.

First: GCGTGCCA
Second: ATACTATC
The “PBM E-score” value of the first is lower: -0.266 for the first, 0.0853 for the second.

First: GATTCCAA
Second: CCCAGGAC
The “PBM E-score” value of the first is lower: -0.0287 for the first, 0.0729 for the second.

Compared with GAAGTGTA, CCTCCGTC is lower in “PBM E-score” value: -0.103 for the first, -0.206 for the second.

Going from AATACTAC to ACGCTATC, the “PBM E-score” value falls from 0.119 to -0.203.

Compared with AGTAGACG, GTAACGGA is higher in “PBM E-score” value: 0.0483 for the first, 0.0735 for the second.

Going from AAGAGCTT to GTAAGGAC, the “PBM E-score” value rises from -0.166 to 0.268.

Going from ACAGGACG to GTTTAAAC, the “PBM E-score” value rises from 0.0345 to 0.214.

Compared with AACTGGAG, ATAGAAAC is higher in “PBM E-score” value: -0.2 for the first, 0.0232 for the second.

Going from CCGGTACC to AACGTATC, the “PBM E-score” value falls from -0.139 to -0.214.

Compared with AGGTCTGC, GTGCGGTA is higher in “PBM E-score” value: -0.227 for the first, -0.0985 for the second.

Going from CCAGCAGG to AGCTCAAT, the “PBM E-score” value rises from -0.306 to 0.0483.

Compared with AGTAGAGC, CTTACTCA is higher in “PBM E-score” value: -0.166 for the first, -0.123 for the second.

Going from CTGCGCCA to AACTTCGC, the “PBM E-score” value falls from -0.0239 to -0.0366.

First: AGGTTGAG
Second: TGTCCGAA
The “PBM E-score” value of the first is lower: -0.0914 for the first, 0.452 for the second.

Going from ATAATGAC to AACCTCTA, the “PBM E-score” value falls from -0.033 to -0.0622.

Compared with CTGTTTTC, ACAGGAGC is higher in “PBM E-score” value: -0.0669 for the first, 0.0295 for the second.

Compared with ACCCCTCA, GGAAAGTA is higher in “PBM E-score” value: -0.305 for the first, 0.00177 for the second.

First: CCCGTCAG
Second: AACTGTGA
The “PBM E-score” value of the first is lower: -0.179 for the first, 0.0858 for the second.

Going from AGATACAT to TCACGGGA, the “PBM E-score” value falls from 0.241 to 0.0822.

First: TGCGCCCA
Second: TGACAAAA
The “PBM E-score” value of the first is lower: -0.0583 for the first, 0.402 for the second.

Compared with ACACGACT, GGACAACA is higher in “PBM E-score” value: 0.111 for the first, 0.337 for the second.

Going from ACCTTCGA to CATCGCAA, the “PBM E-score” value falls from -0.0843 to -0.159.

Going from CAGCTTAA to GAACCTGA, the “PBM E-score” value rises from -0.0697 to -0.0302.

Compared with ATAAAACC, CTACGCGA is lower in “PBM E-score” value: 0.204 for the first, 0.00041 for the second.

Going from AACTTCAA to ATAAGAGA, the “PBM E-score” value rises from 0.0618 to 0.21.

Compared with GTGAAATA, ATACATAG is higher in “PBM E-score” value: 0.0459 for the first, 0.114 for the second.

Going from CATGACAG to AACCAATC, the “PBM E-score” value falls from 0.13 to 0.0274.

Compared with AAGCGAGC, TGGACCCA is higher in “PBM E-score” value: -0.0286 for the first, -0.00247 for the second.

Compared with GGACACCC, AAATGAGT is higher in “PBM E-score” value: -0.0113 for the first, 0.0295 for the second.

Going from ACGAAAGT to GCAAGCGC, the “PBM E-score” value falls from 0.055 to -0.146.

Compared with AAAGATGC, ATACCGAT is higher in “PBM E-score” value: -0.254 for the first, 0.0201 for the second.

Compared with TAAGAAGA, AATTATAA is higher in “PBM E-score” value: 0.0965 for the first, 0.225 for the second.

First: TACCTTGA
Second: CGACTCCC
The “PBM E-score” value of the first is higher: 0.0341 for the first, -0.0565 for the second.

Going from ACCATACT to GCGAACCA, the “PBM E-score” value falls from 0.0758 to -0.0367.

Compared with CCACGCAG, ATGAAAGG is lower in “PBM E-score” value: -0.102 for the first, -0.179 for the second.

Compared with AAGTGCGC, GTATAAAC is higher in “PBM E-score” value: -0.108 for the first, 0.163 for the second.

First: GAGGCGCA
Second: CATAAGAA
The “PBM E-score” value of the first is lower: -0.173 for the first, 0.156 for the second.

First: GGAGCCTA
Second: AGTATGGG
The “PBM E-score” value of the first is lower: -0.0816 for the first, 0.0148 for the second.

First: AAATAGGC
Second: ATGTCAAG
The “PBM E-score” value of the first is lower: 0.0174 for the first, 0.217 for the second.

Going from CTAATAGC to CCCAAATA, the “PBM E-score” value rises from -0.255 to 0.0428.

Going from TAAATGGA to GAAGACCC, the “PBM E-score” value falls from 0.0732 to -0.293.

First: ACCGTTGC
Second: CGAGCTAC
The “PBM E-score” value of the first is lower: -0.12 for the first, -0.106 for the second.

First: AGGTTGCG
Second: TACGGTCA
The “PBM E-score” value of the first is lower: -0.132 for the first, -0.0772 for the second.

Going from ATGCGATC to GATCATAA, the “PBM E-score” value rises from 0.0267 to 0.0946.

First: AAACATAC
Second: AGTCCTAC
The “PBM E-score” value of the first is lower: -0.0227 for the first, 0.165 for the second.

Going from CATTAATC to GGAGGTCA, the “PBM E-score” value falls from 0.077 to -0.197.

Compared with AGGACCAT, TCGCGGCA is lower in “PBM E-score” value: 0.0759 for the first, -0.0647 for the second.

Compared with CACGACTG, CCTACGGC is lower in “PBM E-score” value: -0.132 for the first, -0.23 for the second.

First: CCCGGTCG
Second: ATGGCTCC
The “PBM E-score” value of the first is lower: -0.185 for the first, -0.144 for the second.

Compared with AAACGTTC, AGCTGAGA is lower in “PBM E-score” value: -0.00364 for the first, -0.0294 for the second.

Going from AGCTAGAA to CAGCAACG, the “PBM E-score” value rises from 0.0088 to 0.0974.

Going from GGACGACC to TAAAGTTA, the “PBM E-score” value rises from -0.163 to 0.154.

Going from GAGGCTCC to CCGCGACC, the “PBM E-score” value rises from -0.164 to -0.0476.

Compared with AAATTGCC, AGCCACGC is lower in “PBM E-score” value: 0.0743 for the first, -0.143 for the second.

Compared with AAGTTCCA, ATAGTTTG is higher in “PBM E-score” value: -0.0544 for the first, 0.274 for the second.

First: CAAGGGCC
Second: CCCGCAGA
The “PBM E-score” value of the first is lower: -0.185 for the first, -0.068 for the second.

First: AATCCTAG
Second: GCCTTGAA
The “PBM E-score” value of the first is higher: -0.0237 for the first, -0.278 for the second.

Going from ATGCGAGG to GCGGTTTA, the “PBM E-score” value rises from -0.134 to 0.0245.

Compared with ATGCGATA, AAAACCCC is lower in “PBM E-score” value: 0.0216 for the first, -0.155 for the second.

Going from TCTACACA to CAAATGAA, the “PBM E-score” value rises from -0.0126 to 0.0666.

Compared with TCCCCCCA, ACTCCGAA is higher in “PBM E-score” value: -0.341 for the first, 0.00789 for the second.

Compared with AAAAGGTA, CATGTAAA is higher in “PBM E-score” value: 0.0382 for the first, 0.109 for the second.

First: ACTATTAG
Second: AATACCAT
The “PBM E-score” value of the first is lower: 0.16 for the first, 0.172 for the second.

Compared with GGAAGACA, TAGTCATA is lower in “PBM E-score” value: 0.251 for the first, 0.0578 for the second.

First: ATAAAGAA
Second: AGGAGTGG
The “PBM E-score” value of the first is higher: 0.143 for the first, -0.233 for the second.

First: CACTAGGC
Second: CACCAAAA
The “PBM E-score” value of the first is lower: -0.0968 for the first, 0.0614 for the second.

Going from TAAGGGCA to CAATCATA, the “PBM E-score” value falls from 0.0897 to 0.0579.

First: ACCAGGGC
Second: ATCGGTAG
The “PBM E-score” value of the first is lower: -0.261 for the first, 0.117 for the second.

First: ATTCAAGC
Second: AACACTGC
The “PBM E-score” value of the first is higher: 0.0438 for the first, -0.00331 for the second.

First: ACTACGGA
Second: TCTGGTCA
The “PBM E-score” value of the first is lower: 0.0284 for the first, 0.0592 for the second.

Going from TACCCGGA to CCGAGTCA, the “PBM E-score” value falls from 0.21 to -0.0166.

Compared with GATAAAAC, CCAATGGC is lower in “PBM E-score” value: 0.175 for the first, -0.208 for the second.

First: AGTCAGCC
Second: CATGAATC
The “PBM E-score” value of the first is lower: -0.209 for the first, -0.0424 for the second.

Going from CCAGCATC to AATCGTAA, the “PBM E-score” value rises from -0.148 to -0.00853.

First: GTGCTGTA
Second: GAGACCGC
The “PBM E-score” value of the first is higher: -0.0445 for the first, -0.217 for the second.

First: CGCTTGTC
Second: CTACCCCA
The “PBM E-score” value of the first is higher: 0.345 for the first, -0.137 for the second.

Going from AGCAGCGG to ACCGCTCT, the “PBM E-score” value falls from -0.0831 to -0.21.

Compared with CTGATCTA, ACCAGTTG is lower in “PBM E-score” value: -0.0508 for the first, -0.0585 for the second.

First: AAATTCGT
Second: AACTCTAT
The “PBM E-score” value of the first is higher: 0.256 for the first, 0.0134 for the second.
